# Measurements as given in paper PMC4336329 (PLoS ONE, 2015).
# The whole screen tested about 310,000 compounds, of which about 14,000 (4.5%) showed an effect of 50% or more. The effect is printed as a negative number. The list shows a part of the results.
# Target: human ether-à-go-go-related gene (hERG) potassium channel (human, UniProt Q12809)
# Assay: primary screen, population patch clamp on CHO cells stably expressing hERG
# 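Further: peak tail current of the secondary pulse compared with the same well before compound.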
# Sequence of human ether-à-go-go-related gene (hERG) potassium channel (Q12809 whole entry, looked up): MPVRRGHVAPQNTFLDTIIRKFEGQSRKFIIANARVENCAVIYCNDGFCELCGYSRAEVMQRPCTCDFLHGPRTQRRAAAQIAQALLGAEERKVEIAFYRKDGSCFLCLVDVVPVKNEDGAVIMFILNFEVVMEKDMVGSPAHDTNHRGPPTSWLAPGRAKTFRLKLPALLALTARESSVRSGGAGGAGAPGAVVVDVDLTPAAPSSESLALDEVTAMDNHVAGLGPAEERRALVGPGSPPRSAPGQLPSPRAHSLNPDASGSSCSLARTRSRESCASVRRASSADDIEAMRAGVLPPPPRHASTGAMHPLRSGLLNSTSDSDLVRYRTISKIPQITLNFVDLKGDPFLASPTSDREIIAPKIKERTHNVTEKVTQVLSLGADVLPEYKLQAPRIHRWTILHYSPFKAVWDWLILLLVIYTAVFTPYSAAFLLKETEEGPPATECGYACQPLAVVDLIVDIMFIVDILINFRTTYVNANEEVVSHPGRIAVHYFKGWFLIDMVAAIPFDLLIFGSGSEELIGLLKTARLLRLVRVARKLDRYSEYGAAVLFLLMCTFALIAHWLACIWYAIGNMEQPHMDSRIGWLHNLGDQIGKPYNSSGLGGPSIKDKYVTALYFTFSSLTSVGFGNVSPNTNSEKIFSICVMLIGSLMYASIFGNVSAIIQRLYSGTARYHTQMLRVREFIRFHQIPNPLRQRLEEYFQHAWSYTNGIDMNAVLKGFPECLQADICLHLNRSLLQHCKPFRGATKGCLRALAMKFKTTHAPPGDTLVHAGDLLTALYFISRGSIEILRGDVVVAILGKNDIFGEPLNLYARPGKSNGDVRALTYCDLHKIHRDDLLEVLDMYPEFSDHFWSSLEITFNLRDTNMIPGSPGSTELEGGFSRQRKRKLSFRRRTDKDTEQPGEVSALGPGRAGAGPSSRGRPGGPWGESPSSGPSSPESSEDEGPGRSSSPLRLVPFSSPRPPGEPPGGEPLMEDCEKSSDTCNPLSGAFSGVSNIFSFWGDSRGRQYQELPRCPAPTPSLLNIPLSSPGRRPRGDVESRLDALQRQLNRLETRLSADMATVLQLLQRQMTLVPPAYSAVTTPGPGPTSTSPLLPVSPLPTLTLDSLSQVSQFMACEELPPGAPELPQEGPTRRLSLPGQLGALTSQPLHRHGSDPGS
row,Compound,"hERG current change (%, negative = inhibition) at 10uM [%]"
1,CC(=O)NC(c1cc(F)c2cccnc2c1O)C1CC1 (stereo not shown),-1.58
2,CCOC(=O)C1=C(c2ccccc2)N=C2SCC(=O)N2C1c1ccc(O)c(OC)c1 (stereo not shown),-12.8
3,Cc1ccc(C2(c3ccccc3)NC(=O)N(CC(=O)NCc3ccccc3)C2=O)cc1C (stereo not shown),-23
4,CCN(CC)S(=O)(=O)c1cccc(-c2n[nH]c(=S)n2/N=C/c2ccc(OC)cc2)c1,11.5
5,COC(=O)c1cccc(NC(=O)Cn2cnc3c2c(=O)n(C)c(=O)n3C)c1,-4.78
6,COc1cc(NC(=O)CNC(=O)Cn2c(C)cc3ccccc3c2=O)cc(OC)c1OC,22
7,O=C(NCc1cccnc1)/C(=C\c1ccc(-c2ccc(Cl)c(Cl)c2)o1)S(=O)(=O)c1ccccc1,-4.99
8,CCCS(=O)(=O)c1nc(S(=O)(=O)c2ccc(C)cc2)c(NCCCn2ccnc2)s1,-29.6
9,COc1ccccc1Nc1nc(N)nc(CSc2nnc(C)s2)n1,-2.07
10,CC(C)CC(=O)NC(=S)Nc1ccc(N2CCCC2)c(Cl)c1,12.9
11,Nc1ccc(Oc2ccc3nc(-c4ccccc4)c(-c4ccc([N+](=O)[O-])cc4)nc3c2)cc1,2.12
12,CCc1nn2c(=O)c(S(=O)(=O)Nc3ccc(Cl)cc3)c(C)nc2s1,-20.5
13,COc1ccc(NC2=NC3(CCCCC3)N=C(N)N2)cc1,0.716
14,Cc1ccc(S(=O)(=O)N2CCOCC2)cc1C(=O)N1CCC(Cc2ccccc2)CC1,-5.38
15,C/C(=N\O)C(C)Oc1ccc(Cl)cc1 (stereo not shown),0.654
16,CC(C)[C@@H]1C=C(C(=O)O)O[C@H](OCCCCO)C1,11.3
17,COc1cc(C(=O)NCCOc2ccc(Cl)cc2)ccc1OCc1c(C)noc1C,6
18,CN1CCN(c2ccc(S(=O)(=O)N3CCCCC3)cc2NC(=O)c2ccc(F)cc2F)CC1,-68.4
19,Cc1ccc(-c2nnn(CCC(=O)N3CCCCC3C)n2)cc1 (stereo not shown),-1.73
20,CC1(C)CC(NC(=O)C23CCC(C)(C(=O)C2=O)C3(C)C)CC(C)(C)N1 (stereo not shown),12.8
21,O=C(CCC1CCCCC1)Nc1ccc(S(=O)(=O)Nc2nccs2)cc1,-5.52
22,COc1ccc(C(c2c(C)n(C)n(-c3ccccc3)c2=O)c2c(C)n(C)n(-c3ccccc3)c2=O)cc1O,-2.62

row,Compound,"hERG current change (%, negative = inhibition) at 10uM [%]"
1,COc1cccc(C(C(=O)NC(C)(C)C)N(Cc2ccc(C)cc2)C(=O)CCC(=O)Nc2cc(C)on2)c1OC (stereo not shown),6.04
2,O=C(/C=C/c1ccc(F)cc1)NC(=S)N1CCN(c2ccccn2)CC1,-26.2
3,Cc1ccc(C)c(N(C(=O)CCC(=O)Nc2cc(C)on2)C(C(=O)NC2CCCC2)c2ccco2)c1 (stereo not shown),10.2
4,Cc1ccc2nc(SCC(=O)Nc3cc(C)on3)nc(=O)n2c1,16.8
5,CCOC(=O)CSC1=C(C#N)C(c2ccc(C)o2)CC(=O)N1 (stereo not shown),6.2
6,N#CC12CCCCC1CC1CCCCC1(C#N)N2N (stereo not shown),1.07
7,O=C(NNc1ccc([N+](=O)[O-])cc1)Nc1ccccc1,-16.2
8,CCc1nnc(NC(=O)CSc2nnc(-c3ccco3)n2CCOC)s1,9.29
9,Cc1ccc(OCC(=O)OC(C)CN(C)Cc2ccccc2)cc1.Cl (stereo not shown),2.03
10,COC(=O)/C(NC(C)=O)=C(\C)c1ccc(Cl)cc1,4.09
11,COc1cccc(NC(=O)C2C3C=CC4(O3)C2C(=O)N(CCCN2CCC(C)CC2)C4C(=O)NC2CCCCC2)c1 (stereo not shown),24.3
12,COc1ccc(/C=C/C(=O)OCC(=O)NC2CCCC(C)C2C)cc1S(=O)(=O)N1CCOCC1 (stereo not shown),18.2
13,Cc1ccc(OCC(O)Cn2c3ccccc3c3ccccc32)cc1 (stereo not shown),8.1
14,CC1CCN(CC(=O)N2CC(=O)Nc3ccccc32)CC1,19.9
15,Cc1cc2occ(CC(=O)O)c2cc1C,1.71
16,COc1ccc(CCNC(=O)C(=O)NCC2OCCN2S(=O)(=O)c2ccc(F)cc2)cc1OC (stereo not shown),-4.74
17,N/C(=N\OC(=O)COc1cc(Cl)c(Cl)cc1Cl)c1ccccn1,17.7
18,O=C(CN1CCCC1)OCCCC1CCCCC1,2.79
19,CCOC(=O)C1=C(CN2CCCCC2)NC(=O)NC1c1cc(C)ccc1C (stereo not shown),-2.76
20,CCN(CC)S(=O)(=O)c1cc(NS(=O)(=O)c2cccc(Cl)c2Cl)ccc1C,-1.79
21,COc1ccc(-n2c(Cc3cccn3C)nnc2SCC(=O)Nc2ccc(Cl)cc2)cc1,-39.4
